Drawing on the supplement of paper PMC10126150, this text covers switch fluorescence ratio for 67 sequences.

Values marked as one replicate rest on one cluster of the flow cell; about a third of the high ones do not repeat.

The test system of the series is ATP. In words: switch fluorescence ratio, 500 uM ATP over buffer (Cy3 cluster intensity, sum of 5 cycles each) (fold (ratio)); higher = stronger signal-on switching upon ATP binding; sequences stand for … in TCGTCGGCAGCGTCAGATGTGTATAAGAGACAGTTTTTTTTTTTTTTTTTTTTTTTTT…TC. The note with it: aptamer strand: ATP DNA aptamer (quencher-CACCTGGGGGAGTATTGCGGAGGAAGG + anchor), 100 nM annealed; ATP concentration: 500 uM; one replicate. Put shortly:
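Exposure to 500 uM ATP lasted 15 min at 22 °C before imaging, and a selection-buffer image was taken beforehand, for Cy3-labelled switching-strand clusters on a modified Illumina MiSeq flow-cell annealed to 100 nM quencher-labelled ATP aptamer. Five buffer/ATP cycles were run with NaOH stripping and re-annealing between them. The fluorescence ratio per cluster is summed target-cycle over summed buffer-cycle Cy3 intensity, averaged per switch-domain sequence. Clusters outside 100-1000 RFU were excluded.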
In the case of CGGTCTACT, the switch fluorescence ratio came out at 1.01.
Consider TTTCGCTGGC, for which the switch fluorescence ratio worked out at 0.983.
As for CGTGAGAGAG, the switch fluorescence ratio is 0.994.
For the sequence GAACCGCCGG, the switch fluorescence ratio turned out to be 1.02.
On to TTGCGTCGTG, for which the switch fluorescence ratio came out at 1.01.
For TTCTCGCCTT the value was 0.998; for GCCATGGATA, 0.98.
In the case of GTCAGTAGCC, the switch fluorescence ratio worked out at 0.98.
Turning to TCAGAGAAT, the switch fluorescence ratio turned out to be 0.979.
With TGGTTCTCGT, the switch fluorescence ratio is 1.01.
Consider GGAGATCTGA, for which the switch fluorescence ratio was 1.06.
For CGGGTCCCTT, the switch fluorescence ratio amounted to 1.03.
Take GACACATCGC: the switch fluorescence ratio came out at 1.06.
With TTGATCATAG, the switch fluorescence ratio turned out to be 1.
With ATGTAAGATC, the switch fluorescence ratio was determined as 0.985.
To CTGGCGAATC belongs 1.21; to GGTTCTTTGG, 0.984; to ACCCGCTGTA, 1.22.
To GGAAAGGCAA belongs 1.09.
On to ACCGTGTTC, for which the switch fluorescence ratio amounted to 0.991.
CCGGGTGTCT: the switch fluorescence ratio amounted to 1.09.
Consider AGTACCGAGT, for which the switch fluorescence ratio came to 1.05.
As for CGCGTAGGGG, the switch fluorescence ratio was determined as 1.
Turning to TTATACAGTT, the switch fluorescence ratio is 0.995.
Regarding TTTAATGTTA, the switch fluorescence ratio amounted to 0.948.
In the case of GATACTCAGG, the switch fluorescence ratio is 1.08.
On to ATACTTAAGA, for which the switch fluorescence ratio was 1.
Turning to GAGTCACCGA, the switch fluorescence ratio amounted to 1.01.
As for CCCGTCGTCT, the switch fluorescence ratio stood at 0.975.
Turning to GTAAGCGTCC, the switch fluorescence ratio worked out at 1.1.
In the case of TAAAAAATGC, the switch fluorescence ratio was determined as 1.06.
To CCTAGGCTTG belongs 1.01; to TTAACTTCCA, 1.07.
As for TTGCGAGGTA, the switch fluorescence ratio worked out at 0.98.
On to AAGAGTTTCA, for which the switch fluorescence ratio amounted to 1.
On to GACGAATCGC, for which the switch fluorescence ratio stood at 1.23.
For ACGATACGGT the value was 1.42; for AAGTTTGATC, 1.01; for GCCGAGGCTT, 1.04.
Take TGGCCCACAG: the switch fluorescence ratio turned out to be 1.08.
Consider TGGCGCCGTT, for which the switch fluorescence ratio was 1.05.
Consider CCAGCACCGG, for which the switch fluorescence ratio is 1.04.
To CGCGTTACAC belongs 1.48.
GAGTCGGACC: the switch fluorescence ratio was determined as 0.987.
With TGTGTACATT, the switch fluorescence ratio stood at 1.
Take GAGTCAAATC: the switch fluorescence ratio was determined as 1.
TGCACGGAGT: the switch fluorescence ratio is 0.972.
In the case of CGGCGTTAGA, the switch fluorescence ratio came out at 1.01.
Take ATTGAGGGAA: the switch fluorescence ratio is 0.999.
As to GTCTGGAAAA, the switch fluorescence ratio was determined as 0.949.
CTGCCCGGTC: the switch fluorescence ratio was 1.02.
To GCCGTTTGAT belongs 1.03; to AGCATAGCCG, 0.994; to GACTGGCTGT, 1.09.
Take CTCCTAATAG: the switch fluorescence ratio stood at 4.99.
Consider AAATGCAT, for which the switch fluorescence ratio came to 1.
To GATTTTTCCG belongs 1.04; to GGGATGCGTA, 1.04; to AGCCCACTAC, 1.39.
To ATTCGGTCAG belongs 0.964; to ACAGAGGCGA, 1.02.
As to TTAGCTGGCG, the switch fluorescence ratio was determined as 1.
For the sequence TAAAATAGCT, the switch fluorescence ratio is 0.991.
With CATATTTTAT, the switch fluorescence ratio was found to be 0.995.
Take CGTCGGGAAG: the switch fluorescence ratio was determined as 1.02.
Regarding TTCCGCGGGT, the switch fluorescence ratio came to 0.96.
As to GTTGGATTTT, the switch fluorescence ratio was found to be 1.04.
